Reference: US20240228495A1 (priority 2020, published 2024)

Tested on: Influenza A, strain PR8
Assay: microbe, parasite or virus in culture
Conditions: PR8, MDCK, read-out: Influenza Antiviral Activity by Cytopathic Effect (CPE) in MDCK Cells: EC50

`O=C1c2c(O)c(=O)nc(C3CCCN3C(=O)OCc3ccccc3)n2CCN1CCOc1ccccc1` (centres unmarked) [SRI-0030395, benzyl 2-(9-hydroxy-1,8-dioxo-2-(2-phenoxyethyl)-1,3,4,8-tetrahydro-2H-pyrazino[1,2-c]pyrimidin-6-yl)pyrrolidine-1-carboxylate] and `O=C1c2c(O)c(=O)nc(C3CCCN3C(=O)c3c(Cl)cccc3Cl)n2CCN1CCOc1ccccc1` (centres unmarked) [SRI-0030396, 6-(1-(2,6-dichlorobenzoyl)pyrrolidin-2-yl)-9-hydroxy-2-(2-phenoxyethyl)-3,4-dihydro-2H-pyrazino[1,2-c]pyrimidine-1,8-dione] cannot be ordered by EC50: > 50 µM for the first, > 50 µM for the second.

`O=C1c2c(O)c(=O)nc([C@@H]3CCCN3C(=O)c3c(Cl)cccc3Cl)n2CCN1CCS(=O)(=O)c1ccccn1` [SRI-0031013, (S)-6-(1-(2,6-dichlorobenzoyl)pyrrolidin-2-yl)-9-hydroxy-2-(2-(pyridin-2-ylsulfonyl)ethyl)-3,4-dihydro-2H-pyrazino[1,2-c]pyrimidine-1,8-dione] and `COc1ccc(S(=O)(=O)CCN2CCn3c([C@@H]4CCCN4C(=O)c4c(Cl)cccc4Cl)nc(=O)c(O)c3C2=O)cc1` [SRI-0031016, (S)-6-(1-(2,6-dichlorobenzoyl)pyrrolidin-2-yl)-9-hydroxy-2-(2-((4-methoxyphenyl)sulfonyl)ethyl)-3,4-dihydro-2H-pyrazino[1,2-c]pyrimidine-1,8-dione] cannot be ordered by EC50: > 50 µM for the first, > 40 µM for the second.

`N#Cc1ccc(S(=O)(=O)CCN2CCn3c([C@@H]4CCCN4C(=O)CSc4ccccc4Cl)nc(=O)c(O)c3C2=O)cc1` [SRI-0031014, (S)-4-((2-(6-(1-(2-((2-chlorophenyl)thio)acetyl)pyrrolidin-2-yl)-9-hydroxy-1,8-dioxo-1,3,4,8-tetrahydro-2H-pyrazino[1,2-c]pyrimidin-2-yl)ethyl)sulfonyl)benzonitrile] and `N#Cc1cccc(S(=O)(=O)CCN2CCn3c([C@@H]4CCCN4C(=O)CSc4ccccc4Cl)nc(=O)c(O)c3C2=O)c1` [SRI-0031022, (S)-3-((2-(6-(1-(2-((2-chlorophenyl)thio)acetyl)pyrrolidin-2-yl)-9-hydroxy-1,8-dioxo-1,3,4,8-tetrahydro-2H-pyrazino[1,2-c]pyrimidin-2-yl)ethyl)sulfonyl)benzonitrile] cannot be ordered by EC50: > 50 µM for the first, > 40 µM for the second.

First: N#Cc1ccc(S(=O)(=O)CCN2CCn3c([C@@H]4CCCN4C(=O)c4c(Cl)cccc4Cl)nc(=O)c(O)c3C2=O)cc1 [SRI-0031015, (S)-4-((2-(6-(1-(2,6-dichlorobenzoyl)pyrrolidin-2-yl)-9-hydroxy-1,8-dioxo-1,3,4,8-tetrahydro-2H-pyrazino[1,2-c]pyrimidin-2-yl)ethyl)sulfonyl)benzonitrile]
Second: COc1ccc(S(=O)(=O)CCN2CCn3c([C@@H]4CCCN4C(=O)CSc4ccccc4Cl)nc(=O)c(O)c3C2=O)cc1 [SRI-0031020, (S)-6-(1-(2-((2-chlorophenyl)thio)acetyl)pyrrolidin-2-yl)-9-hydroxy-2-(2-((4-methoxyphenyl)sulfonyl)ethyl)-3,4-dihydro-2H-pyrazino[1,2-c]pyrimidine-1,8-dione]
The EC50 of the first is higher: > 40 µM for the first, 39.3 µM for the second.

`O=C1c2c(O)c(=O)nc([C@@H]3CCCN3C(=O)CSc3ccccc3Cl)n2CCN1CCS(=O)(=O)c1cccnc1` [SRI-0031021, (S)-6-(1-(2-((2-chlorophenyl)thio)acetyl)pyrrolidin-2-yl)-9-hydroxy-2-(2-(pyridin-3-ylsulfonyl)ethyl)-3,4-dihydro-2H-pyrazino[1,2-c]pyrimidine-1,8-dione] and `O=C1c2c(O)c(=O)nc([C@@H]3CCCN3C(=O)CSc3ccccc3Cl)n2CCN1CCS(=O)(=O)c1ccncc1` [SRI-0031029, (S)-6-(1-(2-((2-chlorophenyl)thio)acetyl)pyrrolidin-2-yl)-9-hydroxy-2-(2-(pyridin-4-ylsulfonyl)ethyl)-3,4-dihydro-2H-pyrazino[1,2-c]pyrimidine-1,8-dione] cannot be ordered by EC50: > 40 µM for the first, > 40 µM for the second.

In the case of `O=C1c2c(O)c(=O)nc([C@@H]3CCCN3C(=O)CSc3ccccc3Cl)n2CCN1CCS(=O)(=O)c1cccs1` [SRI-0031024, (S)-6-(1-(2-((2-chlorophenyl)thio)acetyl)pyrrolidin-2-yl)-9-hydroxy-2-(2-(thiophen-2-ylsulfonyl)ethyl)-3,4-dihydro-2H-pyrazino[1,2-c]pyrimidine-1,8-dione], the EC50 is reported as > 40 µM.
